In all, about 310,000 compounds went through this assay and about 14,000 (4.5%) showed an effect of 50% or more. The effect is printed as a negative number. The list shows a part of the results.
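Note: peak tail current of the secondary pulse compared with the same well before compound.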

For this test, the target named is human ether-à-go-go-related gene (hERG) potassium channel (human, UniProt Q12809). The test can be described thus: primary screen, population patch clamp on CHO cells stably expressing hERG.
Chain of human ether-à-go-go-related gene (hERG) potassium channel (Q12809 whole entry, looked up): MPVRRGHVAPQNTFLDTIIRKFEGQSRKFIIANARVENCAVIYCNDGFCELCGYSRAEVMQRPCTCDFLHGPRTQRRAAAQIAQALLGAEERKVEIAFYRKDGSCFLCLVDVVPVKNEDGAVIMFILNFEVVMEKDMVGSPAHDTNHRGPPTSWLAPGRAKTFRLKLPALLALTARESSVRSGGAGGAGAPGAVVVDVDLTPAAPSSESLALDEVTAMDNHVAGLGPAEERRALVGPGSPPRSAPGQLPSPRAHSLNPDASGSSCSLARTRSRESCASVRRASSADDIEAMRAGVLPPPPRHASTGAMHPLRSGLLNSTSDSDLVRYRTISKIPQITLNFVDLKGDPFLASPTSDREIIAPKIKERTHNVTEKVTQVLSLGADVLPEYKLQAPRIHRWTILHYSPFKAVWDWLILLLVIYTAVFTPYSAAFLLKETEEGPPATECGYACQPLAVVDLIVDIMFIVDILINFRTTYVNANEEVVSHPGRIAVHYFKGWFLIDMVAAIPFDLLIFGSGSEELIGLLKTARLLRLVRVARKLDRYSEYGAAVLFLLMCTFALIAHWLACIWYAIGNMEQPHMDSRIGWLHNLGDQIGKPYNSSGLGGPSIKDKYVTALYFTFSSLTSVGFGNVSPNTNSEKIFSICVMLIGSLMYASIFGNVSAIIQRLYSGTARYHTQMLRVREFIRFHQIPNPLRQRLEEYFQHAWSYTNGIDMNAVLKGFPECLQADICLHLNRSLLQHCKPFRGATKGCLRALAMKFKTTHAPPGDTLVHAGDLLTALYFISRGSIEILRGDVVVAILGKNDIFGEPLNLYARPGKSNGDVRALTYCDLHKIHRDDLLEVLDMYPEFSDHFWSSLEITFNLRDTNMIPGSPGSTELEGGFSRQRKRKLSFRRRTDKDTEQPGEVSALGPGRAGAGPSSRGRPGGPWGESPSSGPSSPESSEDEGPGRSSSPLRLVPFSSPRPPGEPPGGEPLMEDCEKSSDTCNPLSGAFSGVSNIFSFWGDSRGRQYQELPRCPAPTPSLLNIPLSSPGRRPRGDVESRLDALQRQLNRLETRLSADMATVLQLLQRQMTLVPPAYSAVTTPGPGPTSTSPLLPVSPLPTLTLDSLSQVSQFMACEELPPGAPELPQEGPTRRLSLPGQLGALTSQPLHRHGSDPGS
Turning to `Cc1ccc(C)c(S(=O)(=O)N2CCN(CC(=O)Nc3ccc([N+](=O)[O-])cc3)CC2)c1`, the “hERG current change (%, negative = inhibition) at 10uM” value is -40.7%.
The result for `COc1cccc(N2C(=O)CN(Cc3ccc(OC)c(OC)c3)C2=S)c1` reads 17%; that for `COc1ccc(CN2C(=NC(=O)COc3ccccc3)SC3CS(=O)(=O)CC32)cc1` (stereo not drawn), -6.21%; that for `CCCCn1c(N)c(N(CCOC)C(=O)c2ccc(N3CCCC3=O)cc2)c(=O)[nH]c1=O`, -4.48%.
To `CN1CCN(C(=O)/C(=C\c2cccs2)NC(=O)c2cccs2)CC1` belongs -72.5%; to `COc1ccc(OC)c(NC(=S)NC(=O)c2ccc(Br)o2)c1`, 19.9%; to `CC(C)Sc1cc(N2CCOCC2)nc(-c2ccccc2)n1`, 2.76%.
In the case of `COc1cc(NC(=O)Cn2cnc3c(nc4n3CCCCC4)c2=O)cc(OC)c1OC`, the “hERG current change (%, negative = inhibition) at 10uM” value was determined as 22.8%.
To `CSc1nnc(CNC(=O)C23CC4CC(CC(C4)C2)C3)n1Cc1ccccc1` belongs -4.68%.
To `COc1ccc(OC)c2[nH]c(=O)c(CCNC(=O)c3ccc(S(=O)(=O)N(C)C)cc3)cc12` belongs 0.759%; to `Cn1c(N)c(C(=O)CSc2nnnn2-c2ccccc2)c(=O)n(C)c1=O`, 20.7%; to `Cc1ccc(S(=O)(=O)n2nc(OC(=O)c3ccccc3F)cc2N)cc1`, 9.49%.
The result for `COc1ccc(CNC(=O)CSc2ncnc3nc[nH]c23)cc1` reads -0.00572%; that for `Cc1cccc(/C=N/NC(=O)C(C)Nc2cccc3ccccc23)n1` (stereo not drawn), 0.248%.
With `COC(=O)c1ccc(C2c3c(oc4ccc(F)cc4c3=O)C(=O)N2CCO)cc1` (stereo not drawn), the “hERG current change (%, negative = inhibition) at 10uM” value is 3.74%.
The result for `COCCNC(=O)c1ccccc1NC(=O)Nc1ccccc1` reads 5.07%; that for `O=c1c(Cc2ccc(F)cc2)c(O)ccn1CCc1ccccn1`, 12.4%.
The result for `CCCCSP1(=S)NCCCN1` reads 10.1%; that for `Cc1cccc(NC(=S)NCc2ccncc2)c1C`, 2.85%; that for `COc1ccc(CCNC(=O)c2csc3c2CCCC3)cc1`, 7.93%.
With `O=C(NCc1ccccn1)c1cc(-n2cnnc2)ccc1Cl`, the “hERG current change (%, negative = inhibition) at 10uM” value was 4.84%.
The result for `O=C(NNC(=O)C1CC=CCC1C(=O)O)c1ccc(Cl)cc1` (stereo not drawn) reads 20.6%; that for `Cc1cc(C)nc(Nc2ncc(O)n2-c2ccc(Br)cc2)n1`, 7.17%.
The result for `Cc1ccccc1Nc1nc2ccccc2n1C(C)C` reads 3.62%.
`COc1ccccc1OCCn1cc(C#N)c2ccccc21`: the “hERG current change (%, negative = inhibition) at 10uM” value is 6.21%.
As for `Cc1cc(C)c2c(N)c(C(=O)N/N=C/c3cccs3)sc2n1`, the “hERG current change (%, negative = inhibition) at 10uM” value worked out at 11.4%.
In the case of `COc1cccc(C(=O)N2CCN(C(=O)Cc3ccccc3)CC2)c1.O=C(O)C(=O)O`, the “hERG current change (%, negative = inhibition) at 10uM” value is on record as -0.00122%.
To `O=C(O)c1ccccc1C(=O)NC1=NN(c2ccccc2)CC1` belongs -0.462%; to `O=S(=O)(/C=C/c1ccccc1)Oc1ccccc1`, -11.7%.
As to `Cc1noc(C)c1S(=O)(=O)NCc1ccc2c(c1)OCO2`, the “hERG current change (%, negative = inhibition) at 10uM” value is -4.46%.
To `Cc1nnc(NC(=O)c2c(-c3ccccc3Cl)noc2C)s1` belongs 12.1%; to `CCOC(=O)Cc1csc(NC(=O)c2c(O)c3ccccc3n(CC(C)C)c2=O)n1`, -6.33%; to `CNC(=O)COC(=O)c1cc2c(s1)CCCC2`, 12.5%.
To `O=C(Cn1cnc(S(=O)(=O)N2CCCC2)c1)Nc1cccc(F)c1` belongs 15.8%; to `COc1ccc(NS(=O)(=O)c2cc(NC(=O)CC(=O)c3ccc([N+](=O)[O-])cc3)ccc2C)cc1`, 5.94%.
With `COCCn1cnc2c1c(=O)n(CC(=O)NC(=O)NC(C)(C)C)c(=O)n2Cc1ccccc1`, the “hERG current change (%, negative = inhibition) at 10uM” value amounted to 2.13%.
With `CC(C(=O)N1CCN(C=O)CC1)N1C(=O)c2ccccc2C1=O` (stereo not drawn), the “hERG current change (%, negative = inhibition) at 10uM” value was determined as 6.4%.
The result for `CCc1nc(SCC(=O)Nc2cc(C)ccc2OC)c2c(C)c(C)sc2n1` reads 13.4%; that for `COc1cccc(NC(=O)CSc2nc(C)cs2)c1`, 5.74%; that for `Cc1ccc(C)c2nc(Cl)c(C3NC(=O)c4ccccc4N3)cc12` (stereo not drawn), -4.91%.
To `O.O=C(NCc1nc2ccccc2[nH]1)c1ccc(Cl)c(S(=O)(=O)N2CCCC2)c1` belongs -14.3%.
The result for `CSc1nc(=O)n(-c2ccccc2)c(C)c1C(C)=O` reads 22.3%; that for `O=C(CCCN1C(=O)/C(=C/c2cccs2)SC1=S)NNC(=O)c1ccccc1O`, 4.76%.
Turning to `O=C(CSc1nnc(-c2ccccc2Cl)o1)N1CCCC1`, the “hERG current change (%, negative = inhibition) at 10uM” value is listed as 18.4%.
To `Cc1ccccc1NC(=O)C1CCN(c2cc(-c3ccccc3)nc3ncnn23)CC1` belongs -8.86%.

The values above are taken from paper PMC4336329 (PLoS ONE, 2015).
